Source: PubChem BioAssay AID1963576 (National Center for Advancing Translational Sciences (NCATS), 2024)
Among all 46,000 compounds or so, about 60 (0.1%) were called active. Not shown: some 3% with an inconclusive outcome. Calls come from the whole dose curve; as a rule, active = well fitted inhibition curve with a large enough effect; inconclusive = small, poorly fitted or top-dose-only effect; inactive = no such curve, though single readings can be large or run the other way. This is one part of the list.

Assay: Primary qHTS assay for Inhibitors of ovarian cancer metastasis using an organotypic tumor microenvironment (TME) model.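 For activity change, negative = inhibition: plate controls were DMSO wells for no effect and tomatine positive control wells for full effect.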 Note: nearly all actives have a fitted effect of over 65% in size.
Settings: SKOV3ip1-GFP adhesion/invasion on 3D omental model, fluorescence; series mostly up to 45.8 µM; activity change, negative = inhibition: at the top concentration
Procedure, shortened: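 Adhesion/invasion was scored as fixed GFP-labeled SKOV3ip1 cell counts (488/509 nm), normalized to DMSO and tomatine controls. Cancer cells in serum-free medium, with four compound doses (0.36-46 umol/L), sat 2 hr at RT then 16 hr at 37 C on a 48 hr fibroblast/mesothelial/ECM culture.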

Activity change, negative = inhibition, inactive:
Cc1ccc2[nH]c3c(=O)n(CC(=O)Nc4ccc(Br)cc4C)ncc3c2c1 0.796%, CSc1ncc2c(n1)-c1ccccc1N(Cc1ccccc1)S2(=O)=O -3.24%, CCOc1ccc(C(=O)Nc2cc3c(cc2N2CCCC2)n(C)c(=O)c(=O)n3C)cc1OCC 0.0976%, Fc1ccc(Nc2nc3ccccc3n3cnnc23)c(F)c1 3.18%, Cc1ccc(N(CC(C)C)S(=O)(=O)c2nnc(NC(=O)C(C)C)s2)cc1 -14.5%, Cc1nn(C(C)C(=O)Nc2ccccc2C(F)(F)F)c(=O)c2c1sc1ccccc12 (configuration not stated) 14.1%, Cc1nc2nc(CNC(=O)c3cccc(F)c3)nn2c(C)c1CCC(=O)Nc1cccc(Cl)c1 5.82%, COc1ccc(-n2ccnc(NCCc3ccccc3)c2=O)cc1OC -1.39%, O=C(c1ccc(F)cc1)n1nc(-c2cccnc2)nc1NCc1ccccc1 7.88%, CCSc1nc2ccccc2c(OCc2ccccc2Cl)c1C(=O)OC 1.91%, COc1ccc(NC(=O)c2nc(-c3ccc(C)cc3)n3c2CCCCC3)cc1 -16.6%, COc1ccc(Oc2nc3c(c(=O)n(Cc4ccc(Br)cc4)c(=O)n3C)n2C)cc1 3.64%, CCN(C(=O)C1CCN(S(=O)(=O)c2c(C)noc2/C=C/c2ccc(C)cc2)CC1)c1cccc(C)c1 -9.65%, CN1CCN(CCNC(=O)c2cnn(-c3ccc(Cl)cc3)c2C2CCN(C(=O)OC(C)(C)C)CC2)CC1 1.47%, COc1ccc(Cl)cc1NC(=O)c1cnc2sc(N3CCOCC3)nn2c1=O -8.93%, Cc1ccc2oc(-c3ccc(Cl)c(NC(=O)c4cc5ccccc5o4)c3)nc2c1 17.4%, Cc1ccc(S(=O)(=O)Nc2ccc3nc(-c4cccc(Cl)c4)oc3c2)cc1 2.39%, CC(C)c1onc(-c2c(Cl)cccc2Cl)c1COc1ccc(C=Cc2cccc(C(=O)O)c2)c(Cl)c1 25.7%, O=C(CCCCCn1c(=O)c2sccc2n(Cc2ccccc2Cl)c1=O)NCc1ccc2c(c1)OCO2 -4.75%, COc1ccc(NC(=O)CSc2nc3ccccc3c(=O)n2CCC(=O)NC2CCCCC2)c(OC)c1 -19%

outcome, inactive:
CSc1ccc(CCNC(=O)CCCn2c(=O)c3cccn3c3ccccc32)cc1, COc1ccccc1CNC(=O)COCc1cc(-c2cccs2)on1, CC(C)(C)c1ccc(C(=O)Nc2c(C(=O)c3ccc(F)cc3)oc3ccccc23)cc1, COc1cccc(C(=O)N(Cc2nc(-c3ccc(Cl)cc3)no2)C(C)C)c1OC, CCOc1ccc(-c2nonc2NC(=O)c2oc3ccc(CC)cc3c2C)cc1, Cc1ccc(CNC(=O)c2cnc3c(-c4ccc(F)cc4)c(C)nn3c2C)o1, COc1ccc(CCNC(=O)C(C)n2nc(C)c3sc4ccccc4c3c2=O)c(OC)c1 (configuration not stated)
